The other results are listed elsewhere or left out. At the low end of the ranking the order means little.
Molecular target: SIX1 homeodomain (reference allele) (UniProt Q15475)
Test: universal protein binding microarray
Settings: Universal all-10-mer PBM (8x60K, AMADID 030236), 300 nM GST-tagged protein, Alexa Fluor 488 anti-GST; buffer, salt, pH and temperature not stated; high values mean tight binding; most listed sequences are background and not binding sites; double strand, one strand shown

Sequence | binding signal [E-score]
ACTCTCGC | -0.047
AAGACTAA | 0.0124
CCGCTTGA | -0.076
ATCCAATG | 0.175
CGTCGCAA | -0.17
AGCGTCAA | -0.103
CGGGGTGA | 0.198
GCTCTTAC | -0.143
CTGGCGCA | -0.235
GATATGCA | 0.403
AAGTAATC | -0.022
AGTCGTGC | -0.381
GAGACACA | 0.175
TGGATCAA | 0.306
TACCGGAA | -0.00044
CGCAGCTC | -0.0286
CTAGCTGA | 0.0507
AGCCAAAT | -0.134
ACTATTCA | -0.0552
AAATACGT | -0.0622
GGAAGTAC | -0.212
TAATATAA | 0.257
AAATAGGG | 0.00936
ATCTCGCC | 0.0882
AGGTCTTA | -0.0877

Sequence | binding signal [E-score]
TATCATGA | 0.382
GCGGCGTA | -0.0537
CTCGGTGA | 0.0111
ACGAGAGA | -0.00677
CTATCTAA | 0.0125
AGGGCTAG | -0.099
ACCGCGAT | 0.323
CACTGTGG | 0.0625
AGGCGCAG | -0.14
AACGTCAG | -0.307
CTAACACA | -0.0192
CGAAAACG | -0.154
CCGAAGCA | -0.0149
CGTTGGAG | -0.127
ATCTAGCA | 0.0761
CAGGTACG | 0.08
CGGTTTGA | 0.0547
CCATTCAC | -0.092
ACATATCG | 0.389
ATCTTTGG | 0.00602
CCTAAGAG | -0.0494
GAGCCCTC | -0.0567
AATCGGCG | -0.127
GCAGTTTA | -0.237
ATATAACA | 0.178

Sequence | binding signal [E-score]
GAACTGAC | -0.149
AGCCAAAC | -0.188
CAATACTG | 0.0673
ACAGCGTC | -0.0483
CACAAACG | -0.0464
CTGAGACA | 0.1
ATAGGTAC | 0.16
CCGCAACG | -0.00732
CAACCCCC | -0.0371
AGGGGGGG | -0.124
AGTCCCAC | -0.05
AACAGTGC | -0.0978
ATCCCGCC | 0.27
AAGTAATG | -0.179
ACCGCGGG | 0.145
CATGACAG | -0.172
CAGGACTA | -0.121
CCATGACG | -0.203
GTTAGGGA | -0.0668
ATTGCGCA | -0.136
AAGTAGTA | 0.0018
CGTCTATC | 0.0885
CGAGCTGA | 0.184
ATTTGTCG | -0.157
AAGGACGG | -0.0918

Sequence | binding signal [E-score]
AGTGGACG | -0.204
CCGTATGA | 0.217
TCTATTCA | 0.048
CGAGGGAC | -0.224
TCCCAGCA | -0.141
AGCGTGGG | -0.0712
CCAAAACG | -0.184
GTACGCTA | -0.157
AGTCAACG | -0.363
ACCTTTCT | -0.0243
ATCCATTG | 0.271
CAACAAGA | -0.012
AACGCGAG | -0.0233
CACCGCCG | 0.0571
ATAGGTAA | 0.0604
CTAGGAGC | -0.121
AGATTCTG | 0.0305
ATTTTCCC | -0.14
AATGCACC | -0.124
CGAAATGC | -0.0707
AAGGAACT | -0.253
GGACTGGA | -0.231
AGCGAGCC | -0.037
CAGATATG | 0.315
CCCTAACC | -0.0707

Sequence | binding signal [E-score]
CTGCCACC | -0.0351
TGCAAAAA | -0.119
CGGAATAG | 0.105
CCTGGGCG | -0.0676
ATTAGCTC | -0.114
CCACTCCA | -0.0598
GACGGGCA | 0.0652
ACGGACAG | -0.16
TGCAACCA | -0.0759
ACCGGTTG | 0.0808
GTATTAGA | 0.237
CGAGACAC | 0.176
CGGTGCCC | -0.0466
CTAATCCC | 0.215
CCGCATGC | 0.0337
CGCAAGAA | 0.0307
CGGGCGAG | -0.168
ATCTGGCG | 0.114
GGCCCTAC | -0.117
ACTAAAGC | -0.198
ACTCTTAT | 0.103
ACAGTCGG | -0.075
CTCTGAGC | -0.0135
ATGTCTTC | -0.117
CCAATCTC | 0.0567

Sequence | binding signal [E-score]
CCCGAACA | -0.0584
GAAAGACC | -0.241
ACTATGAC | -0.104
CACCAGCG | 0.0438
AAGCTAAA | -0.255
ATATCAAT | 0.421
AAGGAATA | -0.00178
GAGACGCC | 0.155
TGATATAA | 0.297
ATGAATTG | -0.16
GCTCCCTA | -0.132
AGAGAGCC | -0.187
CAACGGAG | 0.0127
AGAGGCAA | -0.0842
TCGGGTAA | 0.0661
ATTAGTTC | 0.000865
CTGCCATA | 0.0315
GAGACCTC | 0.118
CGTTTGGC | -0.269
ATACCCTA | 0.452
GTTTCTAA | -0.00822
AAAGCTGC | -0.151
ATGGTGAG | 0.113
GGTCCGTA | 0.0125
GCAGTAGC | -0.0595

Sequence | binding signal [E-score]
AACTGTGA | -0.0846
CTTCACAA | -0.174
CAAGAGCG | -0.135
CAGTCGAC | -0.0279
GGGGCAGA | 0.0389
CCCTCGGA | 0.183
ACGCCAGT | 0.0282
CCGTGCTA | -0.149
TCCGCGCA | -0.0491
ACCGAACC | -0.0494
AGTCCTCA | -0.0846
GGACACAA | 0.0336
GAAGGTCC | -0.172
AACCTAGG | -0.103
ACGGGAAC | -0.137
ATAAAGAA | -0.00534
GAATTATA | 0.054
CCACCGAG | -0.0381
TAATATGA | 0.196
AGCTCTGA | -0.12
ATTATTAC | 0.0883
CACACGCC | -0.0621

Reference: article PMC10668032
